In all, about 350,000 compounds went through this assay and about 31,000 (8.9%) were called active. Inconclusive means that the source gave no clear call. Such entries were picked first, then a sample of the others. Calls follow the shape of the dose curve; as a rule, active = well fitted inhibition curve with a large enough effect; inconclusive = small, poorly fitted or top-dose-only effect; inactive = no such curve, though single readings can be large or run the other way. A potency beside an inconclusive call is a rough fit, not a confirmed value.
Molecular target: Histone-lysine N-methyltransferase EHMT2 (Homo sapiens) (UniProt Q96KQ7)
Sequence of UniProt Q96KQ7 (Q96KQ7 whole entry, looked up): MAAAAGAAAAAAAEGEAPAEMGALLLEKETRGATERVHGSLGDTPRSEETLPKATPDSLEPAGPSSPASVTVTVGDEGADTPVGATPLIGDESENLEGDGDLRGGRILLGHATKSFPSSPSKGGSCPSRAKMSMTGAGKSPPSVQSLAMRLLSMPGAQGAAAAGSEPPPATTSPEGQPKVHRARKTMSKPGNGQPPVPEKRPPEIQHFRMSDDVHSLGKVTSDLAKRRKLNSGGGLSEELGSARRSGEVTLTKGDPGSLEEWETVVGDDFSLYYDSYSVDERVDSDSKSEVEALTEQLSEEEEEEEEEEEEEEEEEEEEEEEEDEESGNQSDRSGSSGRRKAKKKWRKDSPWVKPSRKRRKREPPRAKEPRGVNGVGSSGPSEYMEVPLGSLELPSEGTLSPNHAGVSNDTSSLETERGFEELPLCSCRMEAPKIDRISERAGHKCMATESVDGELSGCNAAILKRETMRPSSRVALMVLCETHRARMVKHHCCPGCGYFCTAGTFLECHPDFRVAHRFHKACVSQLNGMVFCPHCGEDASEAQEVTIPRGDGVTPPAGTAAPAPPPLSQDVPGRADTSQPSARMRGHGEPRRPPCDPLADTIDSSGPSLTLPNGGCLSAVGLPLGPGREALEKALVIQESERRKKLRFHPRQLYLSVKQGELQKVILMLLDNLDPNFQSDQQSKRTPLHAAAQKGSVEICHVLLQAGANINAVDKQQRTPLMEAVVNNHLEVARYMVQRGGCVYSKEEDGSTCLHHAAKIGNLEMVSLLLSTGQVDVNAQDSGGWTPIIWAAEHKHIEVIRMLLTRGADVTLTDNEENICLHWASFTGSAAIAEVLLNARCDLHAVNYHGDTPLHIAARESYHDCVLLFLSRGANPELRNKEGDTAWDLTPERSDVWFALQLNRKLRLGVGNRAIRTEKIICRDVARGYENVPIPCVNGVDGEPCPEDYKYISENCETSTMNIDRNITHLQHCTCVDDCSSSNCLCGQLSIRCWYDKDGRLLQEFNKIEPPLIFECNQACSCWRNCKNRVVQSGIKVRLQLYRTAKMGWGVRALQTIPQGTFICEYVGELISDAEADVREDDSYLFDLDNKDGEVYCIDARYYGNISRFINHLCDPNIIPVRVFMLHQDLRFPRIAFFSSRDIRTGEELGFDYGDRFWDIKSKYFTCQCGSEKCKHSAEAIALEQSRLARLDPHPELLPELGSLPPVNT
Assay: qHTS Assay for Inhibitors of Histone Lysine Methyltransferase G9a; also: nearly all actives have a fitted effect of over 75% in size
Conditions: G9a H3K9 monomethylation, AlphaScreen, 2 h; activity, negative = inhibition: at 59 µM (top of the series) unless noted
Summary of the method: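 Signal arises when biotinylated H3K9 peptide, once monomethylated, bridges streptavidin donor and antibody-captured acceptor beads. Enzyme at 20 nM was preincubated 15 min with test compounds; peptide 500 nM and SAM 20 uM then reacted for 2 h.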
% is scaled to controls: 0 for no effect and ±100 for the full control effect; potency is read from the fitted curve at half-maximal effect; tags tell the direction and shape of the fitted curve.

Structure (SMILES)	Potency	activity, negative = inhibition
CCC(OCC(O)CN1CCCCC1)c1ccccc1 (stereo not given)	inactive	
Cc1cc(O)c(-c2ccnc3cc(-c4ccccc4)nn23)cc1Cl	inactive	
Cn1cc([N+](=O)[O-])c(C(=O)Nc2cc(Oc3cccnc3)cc([N+](=O)[O-])c2)n1	active: 44.7 µM	
CSCCC(NC(=O)c1ccco1)C(=O)OCC(=O)Nc1ncc(Cl)c(C)c1Cl (stereo not given)	inconclusive: 20 µM [inhibitor, single point]	
O=C(CSc1nc2ccccc2n1S(=O)(=O)c1cccc([N+](=O)[O-])c1)NCc1cccs1	inconclusive: 20 µM [inhibitor, single point]	
Cc1ccc(CNC(=O)CCS(=O)(=O)c2ccc3c(c2)NC(=O)CO3)cc1	inactive	
COc1cc(NC(=S)NC2CC2)c(OC)cc1Cl	inconclusive: 89.1 µM [inhibitor, single point]	
CCC(=O)NC(=S)Nc1cccc(NC(=O)c2ccccc2Cl)c1	active: 17.8 µM	
Cc1cc2[nH]c(=O)c(=O)[nH]c2cc1S(=O)(=O)Nc1cccc(C)c1C	inactive	
Cc1cc(/C=N/NC(=O)c2cccc(N(C)C)c2)c(C)n1-c1cc(C(=O)O)cc(C(=O)O)c1	active: 11.2 µM	
CC(C)(C)c1ccc2c(c1)OC(C(=O)N/N=C\c1ccc[nH]1)CO2 (stereo not given)	active: 50.1 µM	
Cc1ccc(NC(=O)c2cccc(S(=O)(=O)N3CCc4ccccc4C3)c2)nc1		inactive: 3.04% [at 0.501 µM]
Cc1ccc(-c2nc(CS(=O)CC(=O)NCc3ccco3)c(C)o2)cc1 (stereo not given)	inconclusive: 89.1 µM [inhibitor, single point]	
CN(C)CCN=Cc1c(O)n(Cc2ccccc2)c(=O)c2ccccc12	active: 56.2 µM	
CCOC(=O)c1ccn(CSc2c(F)c(F)cc(F)c2F)n1	inconclusive: 8.91 µM [inhibitor, single point]	
CN(C)S(=O)(=O)c1ccc(Cl)c(NC(=O)CN2CCCCCC2)c1	inactive	
COc1ccccc1C(=O)Nc1nc2nc(C)c(Cc3ccccc3)c(=O)n2[nH]1	inconclusive: 28.2 µM [inhibitor, single point]	
CCN(CC)N=Nc1ccc(C(=O)O)cc1	active: 2 µM	
O=C1N=C(N2CCc3ccccc3C2)S/C1=C\c1ccc(O)cc1	inconclusive: 31.6 µM [inhibitor, full curve]	
O=C(CCNC(=O)c1ccco1)NCc1ccccc1	inactive	
COc1ccc2cc(C(=O)C3CCCN(Cc4cnc(N5CCOCC5)s4)C3)ccc2c1 (stereo not given)	active: 39.8 µM	
CCCc1nccn1S(=O)(=O)c1cc(Br)ccc1OC	inactive	
C=CCN=C(CC)C1=C(O)CCCC1=O	inconclusive: 70.8 µM [inhibitor, single point]	
COc1cccc(Nc2nnc(SCn3nnc4ccccc4c3=O)s2)c1	inconclusive: 44.7 µM [inhibitor, partial curve, poor fit]	
Cc1ccc(C(NC(=O)N2CC(C)OC(C)C2)C(Cl)Cl)cc1F (stereo not given)	active: 79.4 µM	

Structure (SMILES)	Potency	activity, negative = inhibition
CC(=O)NC(c1ccco1)c1cc(Cl)c2ccc(N3CCCCC3)nc2c1O (stereo not given)	active: 3.98 µM	
CCCC(=O)NC(c1ccccc1Cl)c1ccc2cccnc2c1O (stereo not given)	inactive	
Cc1ccc(SCC(=O)Nc2cccc(S(=O)(=O)N3CCOCC3)c2)cc1C		inactive: -7.42% [at 12.7 µM]
C=CCNC(=O)c1ccc(C2SCC(=O)N2Cc2ccco2)cc1 (stereo not given)	inactive	
O=C(c1ccc(Cl)cc1)N1CCN(c2cccc3[nH]ccc23)CC1	inconclusive: 50.1 µM [inhibitor, partial curve, poor fit]	
FC(F)(F)c1cccc(NC(=S)N2CCN(c3ccccn3)CC2)c1	inconclusive: 70.8 µM [inhibitor, single point]	
Cc1ccc(CN(CCO)CCO)cc1	inactive	
Cc1nn(CCCC(=O)Nc2cccc(F)c2)c(=O)c2c1sc1ccccc12	inconclusive: 39.8 µM [inhibitor, single point]	
Nc1cc2ccncc2c2ccccc12	inactive	
CC(=O)C1(C)OC(N)=C(C#N)C(c2ccccc2)C1(C#N)C#N (stereo not given)	inconclusive: 2.51 µM [inhibitor, partial curve]	
N#Cc1c(NC(=O)COC(=O)c2ccc(O)cc2O)sc2c1CCC2	inconclusive: 22.4 µM [inhibitor, single point]	
CC(/C=C/c1ccc(N(C)C)cc1)=N\N=C(/N)SC1CC(=O)N(c2ccc(C(=O)O)cc2)C1=O (stereo not given)	inconclusive: 31.6 µM [inhibitor, single point]	
O=C(c1ccc(Cl)cc1)N1CCC(C(=O)N2CCN(c3ncccn3)CC2)CC1	inconclusive: 3.55 µM [inhibitor, single point]	
CN(CC(=O)NC(=O)NC1CCCCC1)CC(=O)Nc1ccc(OC(F)(F)F)cc1	inconclusive: 8.91 µM [inhibitor, single point]	
Cc1cccc(C)c1NC(=O)CN(C)C(=O)C1=COCCO1	inconclusive: 8.91 µM [inhibitor, single point]	
NC(=O)COC(=O)C1c2ccccc2Oc2ccccc21		inactive: -1.6% [at 2.33 µM]
CC(=O)NC(CC(=O)Nc1nc(-c2ccc(N(C)S(C)(=O)=O)cc2)cs1)c1ccccc1 (stereo not given)	inconclusive: 89.1 µM [inhibitor, partial curve, poor fit]	
CCCCOCCCNC(=O)c1ccc(OCC)cc1	inconclusive: 89.1 µM [inhibitor, single point]	
Fc1ccccc1N1CCN(C(c2ccncc2)c2nnnn2C2CCCC2)CC1 (stereo not given)	active: 31.6 µM	
CCC(Sc1nnnn1C)C(=O)Nc1ccc(C(C)=O)cc1 (stereo not given)	inconclusive: 1.78 µM [inhibitor, full curve, poor fit]	
CN(C)c1ccc(C(=O)OCC(=O)Nc2ccc(S(N)(=O)=O)cc2)cc1	inconclusive: 39.8 µM [inhibitor, single point]	
O=c1c2ccccc2c(-c2n[nH]c(=S)o2)nn1Cc1ccccc1	active: 3.98 µM	
Cc1cccc2cc(C(c3nnnn3C3CCCC3)N3CCOCC3)c(=O)[nH]c12 (stereo not given)	inactive	
Cc1ccc(C)c(NC(=O)CCC(=O)NNC(=S)Nc2ccccc2)c1	active: 50.1 µM	
OCC1(CCOc2ccccc2)CCN(Cc2ccncc2)CC1	inconclusive: 89.1 µM [inhibitor, single point]	

Structure (SMILES)	Potency	activity, negative = inhibition
CC1CCC(NC(=O)COC(=O)CNC(=O)c2ccc3ccccc3c2)CC1 (stereo not given)		inactive: 8.8% [at 12.7 µM]
COc1cccc(Nc2ncc3nc(CCc4ccccc4)c(=O)n(CCC#N)c3n2)c1		inactive: 11.9% [at 12.7 µM]
Nc1ccc(C(=O)Nc2ccco2)cc1	inconclusive: 8.91 µM [inhibitor, partial curve, poor fit]	
COc1ccc(-n2ncc3c(NCC(C)C)ncnc32)cc1	inactive	
O=C(NCc1ccc(F)cc1)c1ccc(S(=O)(=O)Nc2cccc(C(F)(F)F)c2)cc1	inconclusive: 0.708 µM [inhibitor, full curve]	
NC(=O)c1c(NC(=O)CSc2nc3c(c(C(F)(F)F)n2)CCc2ccccc2-3)sc2c1CCCC2	inconclusive: 25.1 µM [inhibitor, partial curve, poor fit]	
CC(c1ccccc1)C1C(C#N)=C(N)SC(N)=C1C#N (stereo not given)	active: 15.8 µM	
CCOC(=O)C(=NC1CCCCC1)NNc1cccc(C(F)(F)F)c1	active: 50.1 µM	
Clc1cnc(N/N=C/c2ccco2)c(Cl)c1	inactive	
O=C(COc1ccc(F)cc1)Nc1ccccc1C(=O)OCc1cc(=O)n2ccsc2n1	inactive	
CC1CC(C)CN(CC(=O)NC(c2ccccc2)c2ccccc2)C1 (stereo not given)	active: 14.1 µM	
CCOC(=O)c1[nH]c2c(c1Cc1ccccc1OC)C(=O)CC(c1ccccc1)C2 (stereo not given)	inactive	
COC(=O)c1cc(NC(=O)N2c3ccccc3Sc3ccccc32)cc(C(=O)OC)c1	inconclusive: 79.4 µM [inhibitor, single point]	
CCC(CC)c1nc(C#N)c(NC(C)c2ccccc2)o1 (stereo not given)	inconclusive: 20 µM [inhibitor, partial curve, poor fit]	
Cc1ccc(S(=O)(=O)N2CCN(CC3CC4C=CC3C4)CC2)cc1 (stereo not given)	active: 7.94 µM	
COc1cc(C(=O)Nc2nc(-c3ccc(F)cc3)cs2)ccc1OCC(=O)N1CCOCC1	inconclusive: 39.8 µM [inhibitor, single point]	
O=P(O)(O)C(O)C(F)(F)C(F)(F)C(F)(F)C(F)F (stereo not given)	inconclusive: 10 µM [inhibitor, partial curve]	
Cc1ccc(C(=O)CSc2ccc(-c3ccccc3)nn2)cc1	inconclusive: 79.4 µM [inhibitor, single point]	
CCCSCCCNC(=O)CN1C(=O)COc2ccc(S(=O)(=O)N3CCCC3)cc21	inactive	
CCCNc1sc(S(=O)(=O)CCC)nc1S(=O)(=O)c1ccc(C)cc1	inconclusive: 70.8 µM [inhibitor, partial curve, poor fit]	
COc1ccc(N2CCN(C(=O)C3CCN(S(=O)(=O)c4ccc(F)cc4)CC3)CC2)cc1		inconclusive: -99.6% [inhibitor]
CN(C)CCCOC1C(C(O)CO)OC2OC(C)(C)O[C@@H]21 (stereo not given in full)		inactive: 2.29% [at 2.33 µM]
O=C(NNc1ccccc1[N+](=O)[O-])Nc1ccc(F)cc1	active: 3.55 µM	
COC(=O)c1c(NC(=O)CCC(=O)O)sc2c1CCCCC2	inconclusive: 15.8 µM [inhibitor, single point]	
Cc1nnc(SCC(=O)N/N=C/c2cn(-c3ccccc3)nc2-c2ccccc2)n1-c1ccccc1		inactive: 29.6% [at 0.501 µM]

— PubChem BioAssay AID504332 (National Center for Advancing Translational Sciences (NCATS), 2011)
